Data taken from patent publication US9284335B2, “Substituted pyrido[3,2-e][1,2,4]triazolo[1,5-c]pyrimidines, pyrido[2,3-e][1,2,4]triazolo[1,5-c]pyrimidines and/or [1,2,4]triazolo[1,5-c]pteridines for treatment of central nervous system diseases and disorders” (DART NEUROSCIENCE (CAYMAN) LTD., priority 2012, dated 2016).

What follows are compounds tested against full-length recombinant NH-terminal GST tagged human PDE1b enzyme (Homo sapiens, UniProt Q01064) (assay: PDE1b inhibitory assay (IMAP TR-FRET)). Details: negative log of half-maximal molar inhibitory concentration; FAM-cAMP 200 nM; reported as bins; read-out: PDE1b (pEC50) (converted).
Format: biochemical
`COc1cc(Cn2c(=O)n3ncnc3c3cc(CN4C[C@@H](C)O[C@@H](C)C4)cnc32)cc(OC)c1` [Example 153, 6-(3,5-Dimethoxybenzyl)-9-(((2R,6S)-2,6-dimethylmorpholino)methyl)pyrido[3,2-e][1,2,4]triazolo[1,5-c]pyrimidin-5(6H)-one] was tested, and the EC50 was > 10000 nM. With `CCOc1c(F)cc(Cn2c(=O)n3ncnc3c3cc(CN4C[C@@H](C)O[C@@H](C)C4)cnc32)cc1Cl` [Example 154, 6-(3-Chloro-4-ethoxy-5-fluorobenzyl)-9-(((2R,6S)-2,6-dimethylmorpholino)methyl)pyrido[3,2-e][1,2,4]triazolo[1,5-c]pyrimidin-5(6H)-one] the EC50 was > 10000 nM. `CCOc1ccc(Cn2c(=O)n3ncnc3c3cc(CN4C[C@@H](C)O[C@@H](C)C4)cnc32)c(F)c1F` [Example 155] showed an EC50 of 1000 to 10000 nM. `C[C@@H]1CN(Cc2cnc3c(c2)c2ncnn2c(=O)n3Cc2cc(F)c(F)c(F)c2)C[C@H](C)O1` [Example 156, 9-(((2R,6S)-2,6-Dimethylmorpholino)methyl)-6-(3,4,5-trifluorobenzyl)pyrido[3,2-e][1,2,4]triazolo[1,5-c]pyrimidin-5(6H)-one] showed an EC50 of 1000 to 10000 nM. `C[C@@H]1CN(Cc2cnc3c(c2)c2ncnn2c(=O)n3Cc2ccccc2)C[C@H](C)O1` [Example 157, 6-Benzyl-9-(((2R,6S)-2,6-dimethylmorpholino)methyl)pyrido[3,2-e][1,2,4]triazolo[1,5-c]pyrimidin-5(6H)-one] was tested, and the EC50 was 100 to 1000 nM. Work on `Cc1ccc(Cn2c(=O)n3ncnc3c3cc(CN4C[C@@H](C)O[C@@H](C)C4)cnc32)cc1C` [Example 158] yielded an EC50 of 100 to 1000 nM. For `Cc1ccc(Cn2c(=O)n3ncnc3c3cc(CN4C[C@@H](C)O[C@@H](C)C4)cnc32)c(C)c1` [Example 159], the EC50 was 100 to 1000 nM. `Cc1c(F)c(F)c(Cn2c(=O)n3ncnc3c3cc(CN4C[C@@H](C)O[C@@H](C)C4)cnc32)c(F)c1F` [Example 160, 9-(((2S,6R)-2,6-Dimethylmorpholino)methyl)-6-(2,3,5,6-tetrafluoro-4-methylbenzyl)pyrido[3,2-e][1,2,4]triazolo[1,5-c]pyrimidin-5(6H)-one] gave an EC50 of 100 to 1000 nM. With `C[C@@H]1CN(Cc2cnc3c(c2)c2ncnn2c(=O)n3Cc2ccc3c(c2)OCO3)C[C@H](C)O1` [Example 161] the EC50 was < 100 nM. With `COc1ccc(Cn2c(=O)n3ncnc3c3nc(CN4CCOCC4)cnc32)cc1` [Example 162, 6-(4-Methoxybenzyl)-9-(morpholinomethyl)-[1,2,4]triazolo[1,5-c]pteridin-5(6H)-one] the EC50 was 100 to 1000 nM. Work on `COc1ccc(Cn2c(=O)n3ncnc3c3nc(CN4CCOC(C)C4)cnc32)cc1` (centres unmarked) [Example 163, 6-(4-Methoxybenzyl)-9-((2-methylmorpholino)methyl)-[1,2,4]triazolo[1,5-c]pteridin-5(6H)-one] yielded an EC50 of 100 to 1000 nM. For `COc1ccc(Cn2c(=O)n3ncnc3c3nc(CN4CCCCC4)cnc32)cc1` [Example 164, 6-(4-Methoxybenzyl)-9-(piperidin-1-ylmethyl)-[1,2,4]triazolo[1,5-c]pteridin-5(6H)-one], the EC50 was 1000 to 10000 nM. With `COc1ccc(Cn2c(=O)n3ncnc3c3nc(CN4CCC(OC)CC4)cnc32)cc1` [Example 165] the EC50 was 100 to 1000 nM. `COc1ccc(Cn2c(=O)n3ncnc3c3nc(CN4CCN(C(C)=O)CC4)cnc32)cc1` [Example 166, 9-((4-Acetylpiperazin-1-yl)methyl)-6-(4-methoxybenzyl)-[1,2,4]triazolo[1,5-c]pteridin-5(6H)-one] gave an EC50 of 100 to 1000 nM. Work on `COc1ccc(Cn2c(=O)n3ncnc3c3cc(CN4CCCOCC4)cnc32)c(F)c1F` [Example 167, 9-((1,4-Oxazepan-4-yl)methyl)-6-(2,3-difluoro-4-methoxybenzyl)pyrido[3,2-e][1,2,4]triazolo[1,5-c]pyrimidin-5(6H)-one] yielded an EC50 of 100 to 1000 nM. `COc1ccc(Cn2c(=O)n3ncnc3c3cc(CN4CCOCC4C)cnc32)c(F)c1F` (centres unmarked) [Example 168, 6-(2,3-Difluoro-4-methoxybenzyl)-9-((3-methylmorpholino)methyl)pyrido[3,2-e][1,2,4]triazolo[1,5-c]pyrimidin-5(6H)-one] was tested, and the EC50 was 100 to 1000 nM. Work on `COc1ccc(Cn2c(=O)n3ncnc3c3cc(CN4CC(O)C4)cnc32)c(F)c1F` [Example 169] yielded an EC50 of 1000 to 10000 nM.
